Hit rate of the full screen: of about 220,000 compounds, about 16,000 (7.3%) were called active. The shares of active, inactive and inconclusive entries below differ from those in the screen. Calls come from the whole dose curve; as a rule, active = well fitted inhibition curve with a large enough effect (not every such curve was filed as active); inconclusive = small, poorly fitted or top-dose-only effect, or another doubt; inactive = no such curve, though single readings can be large or run the other way. Potencies of inconclusive entries are doubtful fits and often do not repeat.
Molecular target: Aldehyde dehydrogenase 1A1 (Homo sapiens) (UniProt P00352)
UniProt P00352, sequence (P00352 whole entry, looked up): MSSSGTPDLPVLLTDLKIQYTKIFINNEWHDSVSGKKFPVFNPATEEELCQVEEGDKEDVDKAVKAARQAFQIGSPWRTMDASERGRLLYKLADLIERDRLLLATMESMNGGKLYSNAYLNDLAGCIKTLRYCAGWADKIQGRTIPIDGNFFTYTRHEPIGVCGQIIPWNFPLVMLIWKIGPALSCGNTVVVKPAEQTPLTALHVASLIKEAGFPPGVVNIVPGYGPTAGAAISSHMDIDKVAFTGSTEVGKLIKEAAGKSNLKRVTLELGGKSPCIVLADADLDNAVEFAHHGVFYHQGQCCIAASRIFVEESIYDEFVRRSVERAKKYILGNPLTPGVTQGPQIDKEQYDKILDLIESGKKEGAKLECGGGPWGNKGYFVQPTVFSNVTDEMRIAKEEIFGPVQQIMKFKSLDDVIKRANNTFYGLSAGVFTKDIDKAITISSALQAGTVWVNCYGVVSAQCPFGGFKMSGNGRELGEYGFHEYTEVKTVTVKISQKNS
Experiment: qHTS Assay for Inhibitors of Aldehyde Dehydrogenase 1 (ALDH1A1)
Conditions: Purified ALDH1A1, NADH fluorescence, propionaldehyde substrate; series mostly up to 75.3 µM
Potency is the fitted concentration of half-maximal effect; tags give direction and shape of the fitted curve.

Potency, inconclusive:
COc1ccc(Nc2nc(NN)nc(C)c2[N+](=O)[O-])cc1 39.8 µM [inhibitor, single point], CCOC(=O)CSc1nc2ccccc2n1CC(=O)N1CCN(c2ccccc2)CC1 39.8 µM [inhibitor, single point], Nc1nnc(SCCOc2ccccc2)s1 25.1 µM [inhibitor, single point], Cc1ccc(S(=O)(=O)NNC(=O)Nc2cccc3ccccc23)cc1 39.8 µM [inhibitor, single point], COc1ccc(N2CCN(C(=O)Nc3ccccc3Cl)CC2)cc1 8.91 µM [inhibitor, single point], CC[n+]1c(C=C2C=C(C)OC(C)=C2)sc2ccccc21 22.4 µM [inhibitor, partial curve, poor fit], Cc1nnc(NC(=O)C(C)Oc2ccc3c(C)cc(=O)oc3c2)s1 (stereo unspecified) 28.2 µM [inhibitor, single point], COc1nccnc1NS(=O)(=O)c1ccc(NC(=S)NC(=O)c2ccc(F)c(F)c2)cc1 37.7 µM [inhibitor, single point], CCOc1ccccc1Nc1nnc(SCC(=O)Nc2cccc(S(=O)(=O)NC3=NCCCCC3)c2)s1 39.8 µM [inhibitor, single point], CC(C)(C)c1ccc(Cn2cnc(-c3ccc([N+](=O)[O-])cc3)c2)cc1 37.7 µM [inhibitor, single point], O=C(Cc1ccccc1)NCCSCc1ccco1 35.5 µM [inhibitor, single point], CC(NC(=O)c1ccco1)C(=O)OCC(=O)c1ccc(Cl)s1 (stereo unspecified) 39.8 µM [inhibitor, single point], CCCN(/C=N/c1sc2c(c1C#N)CCCCC2)CCC 12.6 µM [inhibitor, partial curve], O=C(O)c1c(C(=O)N2N=C3/C(=C/c4ccccc4)CCCC3C2c2ccccc2)cccc1[N+](=O)[O-] (stereo unspecified) 31.6 µM [inhibitor, single point], COc1ccc(-n2c(O)c(/C=N/NS(=O)(=O)c3ccc(C)cc3)c3ccccc3c2=O)cc1OC 25.1 µM [inhibitor, single point], N#CC1=C(N)Oc2c(ccc3ccccc23)C1c1cccs1 (stereo unspecified) 39.8 µM [inhibitor, single point], CCN(C(=O)Cn1c(=O)n2nc(CCn3nc(C)cc3C)nc2c2ccccc21)c1cccc(C)c1 39.8 µM [inhibitor, single point], COc1ccc(C2=Nc3nc(-c4ccccc4)cn3C(c3ccc(OC)cc3)C2)cc1 (stereo unspecified) 14.1 µM [inhibitor, partial curve], CC(=O)Nc1ccc2nc(SCC(=O)Nc3ccc(N4CCOCC4)c(Cl)c3)sc2c1 12.6 µM [inhibitor, partial curve, poor fit], O=C(COc1ccc(Cl)cc1Cl)NN=C1CCCCC1 10 µM [inhibitor, partial curve], CC(C)Cc1nnc(NC(=O)Cc2ccc([N+](=O)[O-])cc2)s1 44.7 µM [inhibitor, single point], Clc1cccc(Oc2cnns2)c1Cl 35.5 µM [inhibitor, single point], O=c1c2ccccc2cnn1-c1ccc2ccccc2c1 39.8 µM [inhibitor, single point], O=C(c1ccco1)N1N=C(c2ccc(Cl)cc2)CC1(O)C(F)(F)F (stereo unspecified) 3.16 µM [inhibitor, partial curve], CCc1cc(=O)oc2cc(C)cc(OC(C)C(=O)O)c12 (stereo unspecified) 14.1 µM [inhibitor, partial curve], O=C(Nc1nc2ccc(S(=O)(=O)N3CCCC3)cc2s1)c1cccs1 28.2 µM [inhibitor, single point]

Potency, inactive:
O=C(CSc1nc2ccccc2c(=O)[nH]1)Nc1ccc(C(=O)O)cc1, Cn1cc(Cl)c(C(=O)Nc2cnn(Cc3ccc(F)cc3)c2)n1, O=C(CN1C(=O)COc2ccccc21)Nc1ccc2c(c1)OCCO2, Cc1ccc(SCCc2cc[n+](CC(=O)c3ccccc3)cc2)cc1, CC(=O)c1c(C)[nH]c(C(=O)N2CCc3ccccc3C2)c1C, O=C(/C=C/c1cccc(Cl)c1)Nn1c(-c2cccs2)nc2ccccc2c1=O, O=C(Nc1ccc2c(c1)CCC2)c1cc(S(=O)(=O)N2CCN(c3ccccc3)CC2)ccc1Cl, CC(C)(C)Nc1nc(NC(C)(C)C)nc(-n2ccnc2)n1, CCCC/C(O)=C1\C(=O)CC(C)(C)CC1=NCCCCCC(=O)O, O=C(CN(C1CCCCC1)S(=O)(=O)c1ccc(Cl)cc1)NCc1ccncc1, Cc1ccc(-c2nnc(CSc3nc4cc5c(cc4cc3C)OCO5)o2)cc1

Potency, active:
CC(C)(C)C1C/C(=C/c2ccco2)C(=O)/C(=C/c2ccco2)C1 (stereo unspecified) 7.94 µM, CCN(CC)S(=O)(=O)c1ccc(Oc2cccc(C(C)=O)c2)nc1 14.1 µM, Cc1onc(-c2c(F)cccc2Cl)c1C(=O)O/N=C(\N)c1ccc([N+](=O)[O-])o1 7.94 µM, Cc1ccccc1C(=O)Nc1cccc(C(=O)N/N=C/c2cc(Cl)cc([N+](=O)[O-])c2O)c1 1.26 µM, CCOC(=O)c1c(NC(=O)COc2cccc3c2CCN(C)C3=O)sc2c1CCC2 20 µM, CCOc1ccc2nc(SCC(=O)c3cccs3)sc2c1 12.6 µM, CCc1cccc(CC)c1NC(=O)CSc1nc2ccc(N3C(=O)C4C(C3=O)[C@H]3C=C[C@@H]4C3)cc2s1 (stereo partly specified) 17.8 µM, CC1(C)OC(=O)C(=NNc2ccc(Cl)cc2)C(=O)O1 3.16 µM, CCN(CC)c1ccc(/C=N/NS(=O)(=O)c2cccc([N+](=O)[O-])c2)cc1 3.55 µM

Source: PubChem BioAssay AID1030 (National Center for Advancing Translational Sciences (NCATS), 2008)
